Laboratory results published in the RNAGym collection of RNA variant scans (doi:10.1093/nar/gkz1192).
The source gives no read counts; variants with many changes may rest on few reads.

B1: CPEB3 Ribozyme (parent)
chain: UAACAGGGGGCCACAGCAGAAGCGUUCACGUCGCAGCCCCUGUCAGAUUCUGGUGAAUCUGCGAAUUCUGCUGUAUAUCUC

Variants of: B1
Test: self-cleavage, relative activity (ratio to wild type); higher = more cleavage; in vitro, sequencing
In short: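 Libraries of CPEB3 self-cleaving ribozyme mutants came from rounds of error-prone PCR and carried barcodes, which DNA sequencing matched to variants. In vitro transcription used T7 RNA polymerase at 37°C for 5 hours, with a further 15 min in DNase I before EDTA stopped the reaction; the ribozymes cleaved during both steps. The RNA was reverse transcribed with template switching and sequenced on Illumina. Relative activity is the cleaved/total read fraction of a variant divided by that of the unmutated ribozyme, averaged over three batches with at least 5 reads.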

Variant | self-cleavage
UAACAGGGGGCCACAGCAGGAGCGUUCACGUCGCAGCCACUGUCAGAUUCAGGUGAAUCUGCGAAUCCUGCUGUAUAUUUC | 0.15
UAACAGGGGGCCACAGCAGGAGCGUUCACGUCACAGCCCCUGUCAGAUUCAGGUGAAUCUGCGAAUUCCGCUGUAUAUCUC | 0.06
UAACAGGGGGCCACAGCAGGAGCGUUCACGUCGCAGCCCCUUUCAGGUUCUGGUGAAUCUGCGAAUUCUGCUGCAUAUCUC | 0.28
UAACAGGGGGCCACAGCAGGAACGUUCGCGUCGCAGCCCCUGUCAGAUUCUGGUGAAUCUGCGAAUCCUGCUGUAUAUCUC | 0.09
UAACAGGGGGCCACAGCAGGAGCCUUCACGCCACAGCCCCUGUCAGAUUCUGGUGAAUCUGCGAAUUCCGCUGUAUAUCUC | 0.1
UAACAGGGGGCCACAGCAGGAGCAUUCACGUCGCAGCACCUGUCAGAUUCUGGUGAAUCUGCGAAUUCUGCUGUAUAUCUC | 0.09
UAACAGGGGGCCACAGCAGGAACGUUCACGUCGCAGCCCCUGUCAAAUUCUGGUGAAUCUGCGAAUUCUGCUGUAAAUCUC | 0.18
UAACAGGGGGCCACAGCAGGAGCGUUCACGUCGCAACCCCCGUCAGAUUCUGGUGAAUCUGCGAGUUCUGUUGUAUAUCUC | 0.1
UAACAGGGGGCCACAGCAGGAGCGUUCACGUCGCAGCCCCUGUCAAUUUCAGGUGAAUCUGCGAACUCUGCUGUAUAACUC | 0.07
UAACAGGGGGCCACAGCAGGAGCGUUCACGUCACAGCCCCUGUCAGAUUCUGGUGUAUCCGCGAAUUCUGCUGUAUAUCUC | 0.13
UAACAGGGGGCCACAGCAGGAGCGUUCACGUCACAGCCCCUGUCAGAUUCUGGUGAAUCUGCGAAUUCUGCUGUAUACCCC | 0.09
UAACAGGGGGCCACAGCAGGACCGUUCACGUCGCAGCCCCUGUCAGAUUCUGGCGAAUCUGCGAAUUCUGCUGUAUGUCUC | 0.17
UAACAGGGGGCCACAGCAGGAGCGUUCACAUCGCAGCCCCUGUCAGAUGCUGGUGAAUCUGCGAAUUCUGCUGUACAUCUC | 0.08
UAACAGGGGGCCACAGCAGGAGCGUUCACGUCGCAUCCCCCGUCAGAUUCUGGUGAAUCUGCGAAUUCCGCUGUAUAUCUC | 0.08
UAACAGGGGGCCACAGCAGGAGCGUUCACGUCGCAGCCUCAGUCAGAUUCUGGUGAAUCUGCGAGUUCUGCUGUAUAUCUC | 0.08
UAACAGGGGGCCACAGCAGGAGCGUUCACGUCGCAGCCCCUCUCAGAUUCUGGUGUAUCUGCGAAUUCUGCUGUAUAUCUC | 0.08
UAACAGGGGGCCACAGCAGGAGCGUUCACGUCGCAACCCCUGUCAGAUUCUGGUGAAUCUGCGAAUCCUGCUGUAUAUCUC | 0.13
UAACAGGGGGCCACAGCAGGAGCGUUCACGUCGCAGCCCAUGUCAGAUCCUGGUGUAUCUGCGAAUUCUGCUGUAUGUCUC | 0.1
UAACAGGGGGCCACAGCAGGAGCGUUCACGUCGCAGCCCCUAUCAGAUUCUGGUGAAUCUGCUAAUUCUGCUGUAUAUCUC | 0.12
UAACAGGGGGCCACAGCAGGAGCGUUCACGUCGCAGCCUCUGUCAGAUCCUGGUGAAUCUGCGAAUUCUGCUGUAUAUCUC | 0.09
UAACAGGGGGCCACAGCAGGAGCGUUCACGUCACAGCCCCUGUCUGAUUCUGGCGAAUCUGCGAAUUCUGCUGUAUAUCUC | 0.11
UAACAGGGGGCCACAGCAGGAGCGUUCACGUCGCAGCCCCUCUCAGAUUCUGGUGAAUCUGCGAAUUCUGCUGGAUAUCUC | 0.32
UAACAGGGGGCCACAGCAGGAGCGUUCACGUCGCAGCCUCUGCCAGAUUCUGGUGAAUCUGCGAAUUCUGCUGUAUAUCUC | 0.35

Variant | self-cleavage
UAACAGGGGGCCACAGCAGGAGCAUUCACGUCGCAGCCCCUGUCAGAUUCUGGUGAAUCUGCGAAUUCUGCUGUAUAUUUC | 0.04
UAACAGGGGGCCACAGCAGGAGCGUUCACGUCGCAGCCACUGUCGGAUUCUGGUGAAUCUGCGAAUACCACUGUAUAUCCC | 0.12
UAACAGGGGGCCACAGCAGGAGCAUUCACGUCGCAGCCCCUGUCAGAUUCUGGUGAAUCUGCGGAUUCUGCCGUAUAUCAC | 0.06
UAACAGGGGGCCACAGCAGGAGCGUUCACGUCACAGCCCCUGUCAGACUCUGGUGAACCUGCGAAUUCUGCUGUAUAUCUC | 0.29
UAACAGGGGGCCACAGCAGGAGCGUUCACUUCGCAGCCCCUGUCAGGUUCUGGUGAAUCUGCGAAUUCUGCUGUAUAUCUC | 0.22
UAACAGGGGGCCACAGCAGGAGCGUUCACGUCGCAGCCCUUGUCAGAUUCUGGUAGAUCUGCGAAUUCUGCUGUAUAUCUC | 0.4
UAACAGGGGGCCACAGCAGGAGCGUUCACGUCACAGCCCCUGUCAGAUGCUGGUGAAUCUGCGAAUUCUGCUGUAUAUCUC | 0.18
UAACAGGGGGCCACAGCAGGAGCGUUCACGUCGCAGCUCCUGUCAGAUUCUGGCGAAUCUGCGAAUUCUGCGGUAUAUCUC | 0.08
UAACAGGGGGCCACAGCAGGAGCAUUCACGUCGCAGCCCCUGUCAGGUCCUGGUGAAUCUGCGAAUUCUGCUGUAUAUCUC | 0.08
UAACAGGGGGCCACAGCAGGAGCAUUCACGUCGCAGCCCCUGUCAGAUUCUGGCGAAUCUGCGAAUUCUGCUGUAUAUCUC | 0.18
UAACAGGGGGCCACAGCAGGAGCGUUCACAUCGCAGCCCCUGCCAGAUUCUGGUGAAUCUGCGAAUUCUGCUGUAUAUCUC | 0.11
UAACAGGGGGCCACAGCAGGAGCGUUCACGUCCCAGCCCCCGUCAGACUCUGGUGAAUCCGCGAAUUCUGCCGUAUAUCUC | 0.06
UAACAGGGGGCCACAGCAGGAGCAUUCACGUCGUAGCCCCUGUCAGAUUCUGGUGAAUCUGCGAAUUCUGCCGUAUAUCUC | 0.11
UAACAGGGGGCCACAGCAGGAGCGUUCACGUCGCAGCCCAUGUCAGAUUCGGGUGAAUCUGCGAGUUCUGCAGUAUAUCUC | 0.08
UAACAGGGGGCCACAGCAGGAGCGUUCACGUCGCAGCCCCUGUGAGAUCCUGGUGAAUCGGCGAAUUCUGCUGUAUAUCUC | 0.05
UAACAGGGGGCCACAGCAGGAGCGUUCACGUCACAGCCCCCGUCAGAUUCCGGUGCAUCUGCGAAUUCUGCUGUAUAUCUC | 0.09
UAACAGGGGGCCACAGCAGGAGCGUUCACAUCGCAGCCCCUGUCAGAUUCUGGUGAAUCUGCGAAUUCCGCUGUAUAUCUC | 0.15
UAACAGGGGGCCACAGCAGGAGCGUUCACGUCGCAGCCCAUGUCAGAUUCUGGUGAAUCUGCGAAUCCUGCAGUAUAUCUC | 0.23
UAACAGGGGGCCACAGCAGGAGCGUUCACGUCGCAGCCCUUGUCAGAUUCUGGUGAAUCUGCGAAUUCUGGAGUAUAUCUC | 0.08
UAACAGGGGGCCACAGCAGGAGCCUUCACGUCGCUGCCCCUGCCAGAUUCUGGUGAAUCCGCGAAUUCUGCUAUAUAUCUC | 0.27
UAACAGGGGGCCACAGCAGGAGCGUUCACGUCGCAGCCCUUGUCGGAUUCUGGUGAAUCUGCGAAUUCUGCAGUAUACCCC | 0.2
UAACAGGGGGCCACAGCAGGAGCGUUCACGUCGCAGCUCCUGUCAGAUUCUGGUGAAUCUGCGAAUUCUGCUGUAUAUCCC | 0.31
UAACAGGGGGCCACAGCAGGAGCGUUCACGUCACAGCUCCUGUCAGAUUCUGGUGUAUCUGCGGAUUCCGCUGUAUAUCUC | 0.02

Variant | self-cleavage
UAACAGGGGGCCACAGCAGGAGCGUUCACGUCGCAACCCCUGUCAGGUUCUGGUGAAUCUGCGAAUUCUGCCGUAUACCUC | 0.14
UAACAGGGGGCCACAGCAGGAGCGUUCACGUCGCAGCCACUGUCGGAUUCUGGUGAAUCUGCGAAUUCCGCUGUAUAUCCC | 0.15
UAACAGGGGGCCACAGCAGGAGCGUUCACCUCGCAGCCCCUGUCAGACUCUGGUGUAUCUGCGAAUUCUGCUGUAUAUCUC | 0.04
UAACAGGGGGCCACAGCAGGAGCGUUCACGUCGCAGCCCCUGUCAAAUUCUGGUGAAUCUGCGAAUUAUGCUGUAUAUCUC | 0
UAACAGGGGGCCACAGCAGGAGCGUUCACGUCGCAACCCCUGUCUGAUUCUGGUGAGUCCGCGAAUUCUGCUGUAUAUCUC | 0.1
UAACAGGGGGCCACAGCAGGAGCUCUCACGUCGCAGCCCCUGUCAGAUUCUGGGGAAUCUGCGAAUUCUGCUGUAUAUCUC | 0.1
UAACAGGGGGCCACAGCAGGAGCGUUCACGUCACAGCCCCCGUCAGAUUCUGGUGAAUCUGCGAAUUCUGCUGUAUAUCUC | 0.37
UAACAGGGGGCCACAGCAGGAGCGUUCACAUCGCAGCCCCUGUCAGAUUCUGGGGAAUCCGCGAAUUCUGCUGUAUAUCUC | 0.15
UAACAGGGGGCCACAGCAGGAGCGUUCACAUCGCAGCCCCUGUCAGAUUCUGGUGAAUCUGCGAAUUCUGCUGUAUACCUC | 0.07
UAACAGGGGGCCACAGCAGGAGCGUUCACGUCGCAUCCCCUGUCAGAUCCUGGUGAUUCUGCGAAUUCUGCUGUAUAUCUC | 0.41
UAACAGGGGGCCACAGCAGGAGCGUUCACAUCGCAGCCCCCGCCAGAUUCUGGUGAAUCUGCGAAUUCAGCUGUAUAUCUC | 0.04
UAACAGGGGGCCACAGCAGGAGCGUUCACGUCGCAACCCCUGUCAGAUUCUGGUGAAUCUGCGAAUUCUGCUGAAUUUCUC | 0.46
UAACAGGGGGCCACAGCAGGAGCGUUCACACCGCAGCCCCUGUCAGAUUCUGGCGAAUCAGCGGAUUCUGCUGUAUAUCUC | 0.07
UAACAGGGGGCCACAGCAGGAGCGUUCACGUCGCAAGCCCUGUCAGAUUUUGGUGAAUCCGCGAAUUCUGCUGUAUGUCUC | 0.03
UAACAGGGGGCCACAGCAGGAGCGUUCACAUCGCAGCCCCUGUCAGAUUCUGGUGAAUCUGCGAAUUCUGCUGUACAUCUC | 0.17
UAACAGGGGGCCACAGCAGGAGCGUUCACGUCGCAGCCCUUGUCAGAUACCGGCGAAUCUGCGAAUUCUGCUGUAUAUCUC | 0.18
UAACAGGGGGCCACAGCAGGAGCGUUCACGUCGCAGCCCAUGUCAGAUUCGGGUGAAUCUGCGAAUUCUGCAGUAUAUCUC | 0.13
UAACAGGGGGCCACAGCAGGACCGUUCACGUCGCAGCCCCUGUCAGAUUCUGGUGAAUCUGCGGAUUCUGCUGUAUGUCUC | 0.07
UAACAGGGGGCCACAGCAGGAGCGUUCACGUCGCAGCCCCUGUCAGAUUCUGGUGAAUCUGUGAAUUCUGCUGUAUGUCUC | 0.58
UAACAGGGGGCCACAGCAGGAGCGUUCACAUCGCGGCCCCCGUCAGAUUCUGGUGAAUCUGCGAAUUCUGCCGUUCAUCUC | 0.06
UAACAGGGGGCCACAGCAGGAGCGUUCACGUCGCAGCCCUUGUCAGAUUCUGGUGAAUCUGCGAAUUCAGCUGUAUAUCUC | 0.24
UAACAGGGGGCCACAGCAGGAGCGUUCACGUCGCAGCCCAUGUCAGAUUCUGGCGAAUCUGCGAAUUCUGCCGUAAAUCUC | 0.07
